Measured values reported in PMC4336329 (PLoS ONE, 2015).
The campaign covered roughly 310,000 compounds. About 2,200 (0.71%) showed an effect of 50% or more. Effects have a minus sign here. This is one part of the list.

Each compound was assayed against human ether-à-go-go-related gene (hERG) potassium channel (human, UniProt Q12809) (assay: primary screen, population patch clamp on CHO cells stably expressing hERG).
Chain of human ether-à-go-go-related gene (hERG) potassium channel (Q12809 whole entry, looked up): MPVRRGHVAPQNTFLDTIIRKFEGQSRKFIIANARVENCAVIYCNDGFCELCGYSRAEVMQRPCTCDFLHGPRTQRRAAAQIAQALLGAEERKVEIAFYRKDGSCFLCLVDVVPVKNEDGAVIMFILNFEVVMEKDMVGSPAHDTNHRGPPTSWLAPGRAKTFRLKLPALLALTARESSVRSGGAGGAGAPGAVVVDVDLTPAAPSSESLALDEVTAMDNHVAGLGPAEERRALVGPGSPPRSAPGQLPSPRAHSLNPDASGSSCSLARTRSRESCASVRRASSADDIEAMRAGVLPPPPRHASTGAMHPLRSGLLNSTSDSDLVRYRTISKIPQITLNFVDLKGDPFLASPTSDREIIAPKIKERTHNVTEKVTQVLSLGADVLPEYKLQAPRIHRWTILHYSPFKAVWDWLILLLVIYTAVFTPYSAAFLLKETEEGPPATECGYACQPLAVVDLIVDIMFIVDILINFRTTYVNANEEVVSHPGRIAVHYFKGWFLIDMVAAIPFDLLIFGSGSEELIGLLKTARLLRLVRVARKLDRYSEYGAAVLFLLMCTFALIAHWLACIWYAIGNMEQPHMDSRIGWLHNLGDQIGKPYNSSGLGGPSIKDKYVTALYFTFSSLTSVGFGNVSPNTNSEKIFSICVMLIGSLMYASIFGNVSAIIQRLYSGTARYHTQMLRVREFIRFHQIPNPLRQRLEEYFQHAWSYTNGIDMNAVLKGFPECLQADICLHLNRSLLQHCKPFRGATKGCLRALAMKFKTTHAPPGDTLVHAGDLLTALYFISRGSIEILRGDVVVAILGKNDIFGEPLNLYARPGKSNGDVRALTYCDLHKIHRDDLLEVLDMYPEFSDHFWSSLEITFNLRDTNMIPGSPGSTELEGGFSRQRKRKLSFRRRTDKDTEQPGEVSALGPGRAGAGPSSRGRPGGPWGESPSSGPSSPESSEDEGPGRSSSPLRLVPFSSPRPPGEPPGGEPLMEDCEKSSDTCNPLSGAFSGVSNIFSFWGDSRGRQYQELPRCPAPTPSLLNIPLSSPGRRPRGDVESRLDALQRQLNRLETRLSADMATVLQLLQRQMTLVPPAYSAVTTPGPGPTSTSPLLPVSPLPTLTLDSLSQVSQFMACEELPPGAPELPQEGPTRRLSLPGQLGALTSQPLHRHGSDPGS

SMILES | hERG current change (%, negative = inhibition) at 1uM
CC(C)(C)C1CCC(=NNC(=O)c2cc(-c3ccccc3)n[nH]2)CC1 (stereo not drawn) | 10.2%
Cc1cc(F)ccc1NC(=O)C(C)n1c2ccccc2c2nc(=O)cc(C)n21 (stereo not drawn) | 8.53%
O=C(O)c1ccc(Cl)c(S(=O)(=O)NC(Cc2c[nH]c3ccccc23)C(=O)O)c1 (stereo not drawn) | 9.88%
CN(C(=O)COC(=O)c1ccc(CN2CCCC2=O)cc1)c1ccccc1 | -5.66%
O=C(Nc1ccccc1Cl)Nc1ccccc1Cl | 5.38%
COc1cc2c(cc1NC(=O)COC(=O)/C=C/c1ccccc1)oc1ccccc12 | 8.84%
CC(=O)c1cc2c(ccc3ccccc32)oc1=O | 16.3%
COC(=O)C1=C(C)N=C2SC(C)C(=O)N2C1/C=C/c1ccccc1 (stereo not drawn) | 0.432%
CC(C)CC(=O)Nc1ccc(C(=O)COC(=O)C2CC(=O)N(Cc3ccccc3)C2)cc1 (stereo not drawn) | 12.4%
O=C(Cc1ccccc1)NCC(=O)N1CCCC1 | 15.2%
C=CCNC(=O)c1cc(C(=O)C(C)c2ncc(C(F)(F)F)cc2Cl)c[nH]1 (stereo not drawn) | 11.8%
S=C1SCN(Cc2ccco2)CN1Cc1ccco1 | 13.7%
CCOc1ccc(C(F)(F)F)cc1NC(=O)c1ccc(OC)c([N+](=O)[O-])c1 | 15.4%
COc1ccc2oc3ccccc3c(=O)c2c1 | 15.6%
COc1cccc(-n2cnc(=O)c3cccnc32)c1 | 14%
CN(C)n1cccc1/C=C(\C#N)S(=O)(=O)c1cccc(Cl)c1 | 10.6%
CC(C)(C)c1ccc(C(=O)N2CCC(C(=O)NCc3ccncc3)CC2)cc1 | 2.38%
CCCCCC(=O)Nc1ccc(-c2cn3cccnc3n2)cc1 | 7.85%
NS(=O)(=O)c1ccc(NC(=O)Nc2cccc3ccccc23)cc1 | 15.6%
Cc1nn(-c2cccc(C(F)(F)F)c2)c(Cl)c1/C=N/n1cnnc1 | -3.77%
O=C(COC(=O)c1cccnc1)Nc1ccc2c(c1)OCO2 | 20.7%
O=C(NCN1C(=O)C2C3C=CC(C3)C2C1=O)Nc1nncs1 (stereo not drawn) | 9.67%
C[C@H](OC(=O)n1ccnc1)[C@@H]1O[C@@]2(C)CCC[C@@H]1O2 | 15.1%

SMILES | hERG current change (%, negative = inhibition) at 1uM
CC(C)c1nc(Cl)c(C#N)c2c1CCCC2 | 8.24%
Cc1cc(C)cc(C(=O)N2CCN(Cc3ccc4c(c3)OCO4)CC2)c1 | 14.8%
CCOC(=O)N/N=C(/C)c1cccc(-n2cnnn2)c1 | 20.2%
CCC1Nc2ncnc(N3CCN(c4ccccn4)CC3)c2N(Cc2ccc(Cl)cc2)C1=O.O=C(O)C(F)(F)F (stereo not drawn) | -13.2%
Cc1ccc(NC(=O)CCN2C(=O)NC3(CCCC3)C2=O)c(C)c1 | 7.92%
O=C(CNc1ccccc1)Nc1cccc2ccccc12 | 8.71%
N=c1c2c(n(Cc3ccc(F)cc3)c3c1CCC3)CCC2 | -2.36%
O=C(NCc1cccs1)C(=O)NCC1OCCCN1S(=O)(=O)c1ccc(F)cc1 (stereo not drawn) | 7.16%
Nc1ccc(S(=O)(=O)N2CCC(Cc3ccccc3)CC2)cc1 | 16.7%
Cc1cc(N(C)C)nc(SC(C)C)n1 | 14.2%
COc1ccc(NC(=O)c2cc(-c3ccccc3)nc3c2cnn3C(C)C)cc1 | 13.7%
COc1ccc(-c2sc3ccc(OC)cc3c2C#Cc2ccccn2)cc1 | 15.3%
CCOc1ccc2c(c1)c1nnc(SCC(=O)N3CCCCC3C)nc1n2C (stereo not drawn) | -2.18%
CSCCC(NC(=O)C1CCC(C)CC1)C(=O)NCCN1CCOCC1 (stereo not drawn) | 10.3%
O=C(Nn1c(-c2ccc(F)cc2)nc2ccccc2c1=O)C1CCCCC1 | 12.1%
O=C1C(Cl)=C(Nc2ccccc2O)C(=O)N1CCc1ccccc1 | 18.2%
O=C1CSC(c2cccnc2)N1c1cccc(Cl)c1 (stereo not drawn) | 12.2%
COc1cc(C(=O)NCc2nnc(SCC(=O)N3CCCCC3)o2)cc(OC)c1OC | 11.6%
CCOC(=O)Cc1nc2cc(Cl)ccc2o1 | 11.9%
CC(C)n1nc(C(=O)Nc2nc3ccc(S(C)(=O)=O)cc3s2)c2ccccc2c1=O | 14.6%
O=C(CN1CCN(c2ccc(F)cc2)CC1)OCc1ccccc1 | -9.96%
COc1ccc(C(=O)Nc2ccc(C)cn2)cc1S(=O)(=O)N1CCCc2ccccc21 | 11.2%
